{
  "source": "PubChem BioAssay AID504466",
  "about": "(National Center for Advancing Translational Sciences (NCATS), 2011)",
  "note": "Screen size: about 330,000 compounds; about 4,200 (1.3%) were called active. The inconclusive results got no clear call from the source; some entries with a clear call stand among them for comparison. The call rests on the fitted dose curve; in most records, active means well fitted activation curve with a large enough effect; inconclusive means small, poorly fitted or top-dose-only effect; inactive means no such curve, though single readings can be large or run the other way. Where the call is inconclusive, the potency comes from a doubtful curve fit. Potency means the concentration at half of the fitted maximal effect; tags describe the fitted curve by direction and shape.",
  "data": [
    {"test": "qHTS screen for small molecules that induce genotoxicity in human embryonic kidney (HEK293T) cells expressing luciferase-tagged ELG1; further: nearly all actives have a fitted effect of over 60% in size", "conditions": "HEK293T ELG1-luciferase reporter, luminescence, 16 h; series mostly up to 46 µM", "procedure,_shortened": "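Luminescence read-out: rising ELG1-luciferase signal, reflecting elevated ELG1 protein under genetic stress, flags genotoxic compounds. Cells were treated for 16 hr at 37 °C before ONE-Glo detection.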", "values": [
      {"smiles": "CC(=O)N=C1SC2CS(=O)(=O)CC2N1c1ccc(-c2nc3ccc(C)cc3s2)cc1", "note": "(centres undefined)", "Potency": "inconclusive: 18.4 µM [activator, partial curve]"},
      {"smiles": "CCOC(=O)Cc1csc(NC(=O)CCc2ccc(S(=O)(=O)N3CCOCC3)cc2)n1", "Potency": "inactive"},
      {"smiles": "COc1ccccc1C(=O)Nc1ccc(N2CCCCC2)cc1", "Potency": "active: 2.91 µM"},
      {"smiles": "COc1ccc(N2C(=O)c3ccccc3NC2c2ccc(OC)c(CN3CCOCC3)c2)cc1", "note": "(centres undefined)", "Potency": "inconclusive: 18.3 µM [activator, partial curve]"},
      {"smiles": "CC(C)(C)NC(=O)c1cccc(NC(=O)CSc2ccccc2)c1", "Potency": "inactive"},
      {"smiles": "CCCN1CCN(C(=O)c2cc(COc3ccc(F)c(F)c3)on2)CC1", "Potency": "inconclusive: 25.9 µM [activator, partial curve, poor fit]"},
      {"smiles": "COc1c(O)ccc(/C=N/NC(=O)c2ccc3c(c2)OCCO3)c1[N+](=O)[O-]", "Potency": "inconclusive: 20.6 µM [activator, single point]"},
      {"smiles": "COc1cccc(OCc2nc3ccccc3c(=O)n2N)c1", "Potency": "inconclusive: 14.6 µM [activator, partial curve]"},
      {"smiles": "CCC(=O)Nc1nc2ccccc2n1Cc1ccc(Cl)cc1", "Potency": "inconclusive: 32.6 µM [activator, partial curve, poor fit]"},
      {"smiles": "Cc1nc(-c2ccc(Cl)cc2)sc1C1(C)CC(c2ccccc2F)=NO1", "note": "(centres undefined)", "Potency": "inconclusive: 23.1 µM [activator, partial curve, poor fit]"},
      {"smiles": "CCOc1ccc(NC(=O)c2cccs2)c([N+](=O)[O-])c1", "Potency": "inconclusive: 2.59 µM [activator, full curve, poor fit]"},
      {"smiles": "CCOC(=O)c1nn(-c2ccc(C)cc2)c(=O)cc1OCC(=O)Nc1ccc(OC)cc1", "Potency": "inactive"},
      {"smiles": "COC1=CC(=O)CC(C)C12Oc1c(Cl)c(OC)cc(OC)c1C2=O", "note": "(centres undefined)", "Potency": "inconclusive: 18.4 µM [activator, partial curve, poor fit]"},
      {"smiles": "COc1ccc(Cl)cc1C(Nc1cccnc1)c1ccc2cccnc2c1O", "note": "(centres undefined)", "Potency": "inconclusive: 18.3 µM [activator, partial curve, poor fit]"},
      {"smiles": "Cc1ccc(N2C(=O)N3[C@H](c4ccc(F)cc4)[C@@H]4C(=O)N(C5CCCCC5)C(=O)[C@@H]4[C@]3(C)C2=O)cc1", "Potency": "inactive"},
      {"smiles": "Cc1ccccc1Nc1nc(N)nc(CN(C)Cc2ccccc2Cl)n1", "Potency": "inactive"},
      {"smiles": "CCN(CC)S(=O)(=O)c1cc(C(=O)Nc2ccccn2)ccc1C", "Potency": "inconclusive: 4.11 µM [activator, partial curve, poor fit]"},
      {"smiles": "O=C(NCCc1ccccc1)c1ccc(Cl)cc1[N+](=O)[O-]", "Potency": "inconclusive: 16.4 µM [activator, partial curve]"},
      {"smiles": "COc1ccc(-c2csc(NC(=O)COC(=O)c3ccco3)n2)cc1", "Potency": "inconclusive: 16.4 µM [activator, partial curve]"},
      {"smiles": "Cc1nnc(SCc2nc3ccccc3s2)n1-c1ccccc1", "Potency": "inconclusive: 14.6 µM [activator, partial curve, poor fit]"},
      {"smiles": "O=C(Nc1ccc(N2CCCC2)cc1)c1ccc2ccccc2c1", "Potency": "inconclusive: 5.17 µM [activator, full curve]"},
      {"smiles": "COc1ccc(OCCSc2nc(N)cc(N)n2)cc1", "Potency": "active: 0.731 µM"},
      {"smiles": "O=C(N/N=C\\c1ccncc1)c1ccc(Br)s1", "Potency": "inactive"},
      {"smiles": "c1ccc(CCc2nn3c(-c4ccncc4)nnc3s2)cc1", "Potency": "inactive"},
      {"smiles": "COc1cccc(CN2CC(C(=O)NCc3cccc(N4CCCC4)c3)CCC2=O)c1", "note": "(centres undefined)", "Potency": "inactive"},
      {"smiles": "O=C(Cc1ccc(Br)cc1)N1CCOCC1", "Potency": "inactive"},
      {"smiles": "CC(=O)c1cccc(NC(=O)c2onc(C)c2Cl)c1", "Potency": "inactive"},
      {"smiles": "CCCSc1nc(N)nc(-c2cccs2)c1C#N", "Potency": "inactive"},
      {"smiles": "CCOc1ccc(N/C=C/C(=O)c2ccccc2)c([N+](=O)[O-])c1", "Potency": "inconclusive: 0.731 µM [activator, partial curve, poor fit]"},
      {"smiles": "CCCCN(C(=O)CCCSc1nc2ccccc2[nH]1)c1c(N)n(Cc2ccccc2)c(=O)[nH]c1=O", "Potency": "inactive"},
      {"smiles": "Fc1cccc2sc(N3CCCC3)nc12", "Potency": "inconclusive: 20.6 µM [activator, single point]"},
      {"smiles": "COC(=O)c1sc2nc(SCC(=O)N(C)c3ccccc3)n(N)c(=O)c2c1C", "Potency": "inconclusive: 25.9 µM [activator, partial curve, poor fit]"},
      {"smiles": "CCn1c(C(=O)OC)cc2c1ccn2-c1ccc(F)cc1", "Potency": "active: 16.4 µM"},
      {"smiles": "Cc1ccc2c(c1)OC(c1ccc3c(c1)OCCO3)CC2=O", "note": "(centres undefined)", "Potency": "inconclusive: 18.3 µM [activator, single point]"},
      {"smiles": "N#C/C(=C\\c1cccnc1)c1ccc([N+](=O)[O-])cc1", "Potency": "inactive"},
      {"smiles": "CCOC(=O)c1ccc(NCc2nc3ccccc3[nH]2)cc1", "Potency": "inconclusive: 20.6 µM [activator, partial curve, poor fit]"},
      {"smiles": "CCOc1ccc(-c2cc(C(=O)Nc3ccc4c(c3)OCCO4)c3ccccc3n2)cc1", "Potency": "inactive"},
      {"smiles": "CCN(CC(=O)N1CCCC1)S(=O)(=O)c1ccc(Br)cc1", "Potency": "inactive"},
      {"smiles": "Cc1ccc(C(=O)CNc2cccc([N+](=O)[O-])c2)cc1", "Potency": "inconclusive: 20.6 µM [activator, partial curve, poor fit]"},
      {"smiles": "COc1ccc(OCC(=O)Nc2cccc(OC)c2)cc1", "Potency": "inconclusive: 23.1 µM [activator, partial curve, poor fit]"},
      {"smiles": "Cc1ccc(-n2ncc3c(SCc4ccccc4)ncnc32)cc1", "Potency": "inconclusive: 16.4 µM [activator, partial curve]"},
      {"smiles": "O=C(Nc1ccc2[nH]ccc2c1)c1ccccc1", "Potency": "inconclusive: 1.83 µM [activator, full curve, poor fit]"},
      {"smiles": "O=S(=O)(c1ccc(N2CCOCC2)nc1)N(Cc1ccccn1)Cc1ccccn1", "Potency": "inactive"},
      {"smiles": "COc1cccc(NC(=O)/C=C/c2ccccc2[N+](=O)[O-])c1", "Potency": "inconclusive: 9.2 µM [activator, partial curve]"},
      {"smiles": "O=C(Nc1nc2c(F)cccc2s1)c1ccco1", "Potency": "active: 7.3 µM"},
      {"smiles": "Cc1ccc(NC(=O)C(=O)c2c[nH]c3ccccc23)cc1", "Potency": "inconclusive: 0.461 µM [activator, full curve]"},
      {"smiles": "CC(=O)c1ccc(Nc2ncnc3c2oc2ccccc23)cc1", "Potency": "active: 2.06 µM"},
      {"smiles": "COc1ccc(-c2cn3cc(C)ccc3n2)cc1Br", "Potency": "inconclusive: 0.651 µM [activator, full curve, poor fit]"},
      {"smiles": "COC(=O)N/N=C/c1cc(C)n(-c2ccccc2)c1C", "Potency": "inconclusive: 20.6 µM [activator, partial curve, poor fit]"},
      {"smiles": "O=C(N/N=C/c1ccncc1)c1cccs1", "Potency": "inconclusive: 16.4 µM [activator, partial curve, poor fit]"},
      {"smiles": "COc1ccc(NC(=O)c2cc([N+](=O)[O-])ccc2O)cc1", "Potency": "inconclusive: 0.082 µM [activator, full curve, poor fit]"},
      {"smiles": "CNc1ncnc2sc(-c3ccccc3)cc12", "Potency": "inactive"},
      {"smiles": "O=C1C2C3C=CC(CC3)C2C(=O)N1/N=C/c1ccc(O)cc1", "note": "(centres undefined)", "Potency": "inconclusive: 18.4 µM [activator, partial curve, poor fit]"},
      {"smiles": "COc1ccc(-c2noc(-c3ccccc3F)n2)cc1", "Potency": "active: 1.64 µM"},
      {"smiles": "CCCC(=O)Nc1ccc(NC(=O)c2ccccc2OC)cn1", "Potency": "inactive"},
      {"smiles": "Oc1ccccc1-c1cc(-c2ccc(Cl)cc2)n[nH]1", "Potency": "active: 2.31 µM"},
      {"smiles": "CCN(CC(=O)NCc1cccs1)C(=O)/C=C/c1ccc(OC)cc1OC", "Potency": "inconclusive: 2.91 µM [activator, single point]"},
      {"smiles": "CCOC(=O)CSc1nnc(-c2c[nH]c3ccccc23)n1CC", "Potency": "inactive"},
      {"smiles": "Cc1ccccc1-c1ccc(C(=O)Nc2cccc(F)c2)o1", "Potency": "inconclusive: 29.1 µM [activator, partial curve, poor fit]"},
      {"smiles": "CC(O)CNc1ncnc2cc(-c3ccc(F)cc3)sc12", "note": "(centres undefined)", "Potency": "inconclusive: 16.4 µM [activator, partial curve]"},
      {"smiles": "CN(CC(=O)Nc1ccccc1Cl)CC(=O)Nc1sc2c(c1C(N)=O)CCC2", "Potency": "inactive"},
      {"smiles": "O=C(O)CNc1ncccc1[N+](=O)[O-]", "Potency": "inactive"},
      {"smiles": "Cc1ccc(-n2nc3ccc(NC(=S)NC(=O)/C=C/c4ccco4)cc3n2)cc1", "Potency": "inconclusive: 18.4 µM [activator, single point]"},
      {"smiles": "CCCCCCOc1ccc(/C=N/NC(=O)C2CC2)cc1", "Potency": "inactive"},
      {"smiles": "COCCN1Cc2cccc(C(=O)Nc3ccc4c(c3)OCCO4)c2C1=O", "Potency": "inconclusive: 23.1 µM [activator, partial curve]"},
      {"smiles": "O=C(C1=NN[C@@H]2C(=O)N(Cc3ccccc3)C(=O)[C@H]12)c1ccc([N+](=O)[O-])cc1", "Potency": "inactive"},
      {"smiles": "Cc1cccc(NC(=O)NCc2ccc3c(c2)OCO3)c1", "Potency": "inconclusive: 20.6 µM [activator, single point]"},
      {"smiles": "COc1ccc(-c2cn(Cc3ccc(C(=O)c4ccccc4)cc3)nn2)cc1", "Potency": "active: 18.3 µM"},
      {"smiles": "O=C(COC(=O)c1cc2ccccc2oc1=O)Nc1ccc(F)cc1F", "Potency": "inconclusive: 18.3 µM [activator, partial curve]"},
      {"smiles": "Cc1nccc(-c2ccc(-n3c(C)ccc3C)cc2)n1", "Potency": "inconclusive: 20.6 µM [activator, single point]"},
      {"smiles": "Cc1nn(C)cc1S(=O)(=O)N1CCCCC1C", "note": "(centres undefined)", "Potency": "inactive"},
      {"smiles": "COc1ccccc1N1CCN(C(=O)CN2C(=O)C3CCCCC3C2=O)CC1", "note": "(centres undefined)", "Potency": "inconclusive: 20.6 µM [activator, partial curve, poor fit]"},
      {"smiles": "Cc1c(OC(C)C(=O)N2C[C@H]3C[C@@H](C2)c2cccc(=O)n2C3)ccc2c3c(c(=O)oc12)CCC3", "note": "(some centres undefined)", "Potency": "inconclusive: 29.1 µM [activator, single point]"},
      {"smiles": "COc1ccc(C(=O)Nc2ccc3[nH]ncc3c2)cc1", "Potency": "active: 8.2 µM"}
    ]}
  ]
}
